The shares of active, inactive and inconclusive entries below differ from those in the screen. Activity calls are given as the source filed them.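 Rule for the calls, unless noted: active = thallium entry rate above the same plate's blocked-transporter control wells by more than 3 SD; inconclusive = the two repeat wells disagree; inactive = the rest.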
Columns and labels:
[1] = FluoZin2 fluorescence counter-screen of MLSMR hits on KCC2-expressing cells (AID 1714); details: HEK293-KCC2 + bumetanide/ouabain, at 10 µM, stronger effect = higher value;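 note: raw slope of fluorescence over initial fluorescence between 10 and 20 s after thallium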
Method in brief: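 material = KCC2-expressing HEK cells | reagent = thallium stimulus | compound dosing = 10 µM single dose | schedule = cells overnight at 37 °C, FluoZin2-AM dye loading 48 min | technique = kinetic FluoZin2 fluorescence, ex 480/em 540 nm | evaluation = normalized thallium flux slope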

[2] = target: Solute carrier family 12 member 5 (Homo sapiens) (UniProt Q9H2X9); experiment: retest of KCC2 transport modulation, ouabain-free – cell-based, HEK293 KCC2, thallium flux, FluoZin2, secondary assay 2, confirmation (AID 1715;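 active = thallium flux slope more than 3 SD above or below the plate's solvent-only control mean, mostly below; inconclusive = the two repeat wells disagreed; inactive = no significant shift from solvent-only controls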;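 note: raw slope with 0.1% DMSO as baseline and bumetanide as block control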); details: HEK293-KCC2, thallium flux FluoZin2 fluorescence; at 10 µM; actives lie on both sides; F/F0 rise rate, 10–20 s post-thallium
[3] = compound effects on native HEK Tl+ uptake – HEK cells, counterscreen 1, counter-screen for KCC2 modulator project, confirmation (AID 1716;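 active = thallium flux rate significantly above the same plate's solvent-only control wells, beyond their mean plus 3 SD; inconclusive = the two replicate wells gave conflicting results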); details: HEK293 parental cells, thallium flux FluoZin2, ouabain; at 10 µM; baseline-ratio fluorescence slope, 10–20 s after thallium
[4] = target: Solute carrier family 12 member 5 (Homo sapiens) (UniProt Q9H2X9); experiment: modulation of KCC2 thallium flux in HEK cells – cell-based, ouabain, retest, confirmation (AID 1717;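 active = thallium flux slope beyond 3 SD from same-plate DMSO control mean in most replicates, usually higher, sometimes lower; inconclusive = repeat tests gave conflicting results; inactive = no significant difference from controls in most replicates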;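 note: slope of initial-normalized fluorescence between seconds 10 and 20 after thallium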); details: HEK293-KCC2, thallium flux FluoZin2 fluorescence, at 10 µM, bidirectional: low = inhibitor, high = activator
[5] = native HEK Tl+ uptake effects, second counter-screen – HEK cells, counterscreen 2, counter-screen for KCC2 modulator project, confirmation (AID 1718;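 active = thallium flux slope above the same plate's solvent-control mean plus 3 SD in both duplicate wells; inconclusive = duplicate wells that disagreed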;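 note: run without ouabain in cells lacking the KCC2 cotransporter; slope of fluorescence scaled to its starting value between 10 and 20 s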); details: HEK293 parental, thallium flux FluoZin-2 fluorescence slope; at 10 µM
Method in brief: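 System: Parental HEK cells | Also added: Thallium sulfate stimulus buffer | Compound dosing: Single 10 µM final compound dose, 0.1% DMSO | Schedule: Overnight cell culture at 37 °C, 48 min dye loading, compound before thallium | Signal: FluoZin-2 fluorescence kinetics | Repeats: Replicate wells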

Sequence of UniProt Q9H2X9 (Q9H2X9 whole entry, looked up): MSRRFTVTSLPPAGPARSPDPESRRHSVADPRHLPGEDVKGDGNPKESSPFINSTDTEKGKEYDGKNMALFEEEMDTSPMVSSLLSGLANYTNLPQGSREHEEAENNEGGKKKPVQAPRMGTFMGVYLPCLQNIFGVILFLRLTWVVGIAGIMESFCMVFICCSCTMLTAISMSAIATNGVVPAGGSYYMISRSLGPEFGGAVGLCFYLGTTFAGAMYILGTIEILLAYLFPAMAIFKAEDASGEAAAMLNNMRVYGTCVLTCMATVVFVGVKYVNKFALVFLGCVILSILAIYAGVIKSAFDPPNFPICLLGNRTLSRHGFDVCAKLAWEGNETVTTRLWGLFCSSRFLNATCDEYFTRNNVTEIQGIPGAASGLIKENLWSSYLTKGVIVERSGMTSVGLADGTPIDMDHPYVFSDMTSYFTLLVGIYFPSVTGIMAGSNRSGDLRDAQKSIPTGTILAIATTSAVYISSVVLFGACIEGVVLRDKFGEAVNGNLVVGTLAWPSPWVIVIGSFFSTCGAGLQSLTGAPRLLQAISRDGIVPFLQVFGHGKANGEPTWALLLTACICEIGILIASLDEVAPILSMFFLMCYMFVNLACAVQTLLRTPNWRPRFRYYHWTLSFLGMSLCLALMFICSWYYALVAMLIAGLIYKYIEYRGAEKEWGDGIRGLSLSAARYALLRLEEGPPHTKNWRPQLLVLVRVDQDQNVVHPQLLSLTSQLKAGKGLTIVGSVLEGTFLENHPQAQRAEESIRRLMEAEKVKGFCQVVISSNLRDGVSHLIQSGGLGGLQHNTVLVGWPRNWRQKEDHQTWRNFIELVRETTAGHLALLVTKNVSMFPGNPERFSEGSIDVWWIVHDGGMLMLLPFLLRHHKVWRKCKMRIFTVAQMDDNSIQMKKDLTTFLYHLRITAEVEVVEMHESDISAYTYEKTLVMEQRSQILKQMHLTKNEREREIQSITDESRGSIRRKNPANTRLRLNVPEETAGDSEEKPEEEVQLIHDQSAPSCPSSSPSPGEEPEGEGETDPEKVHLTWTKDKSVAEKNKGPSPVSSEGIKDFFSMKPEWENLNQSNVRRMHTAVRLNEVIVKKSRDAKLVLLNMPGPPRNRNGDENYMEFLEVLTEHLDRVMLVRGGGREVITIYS

Question: For O=C(NN=C1CCCCCCC1)c1ccc2ccccc2n1, which normalized thallium flux [1] is on record?
Answer: The normalized thallium flux was active: 0.0381.

Question: What about the normalized thallium flux [2] of the same compound?
Answer: The normalized thallium flux was inconclusive: 0.0345.

Question: And the thallium flux rate (normalised fluorescence) [3]?
Answer: Its thallium flux rate (normalised fluorescence) is active: 0.0265.

Question: And the raw Tl+ flux slope (below DMSO = inhibition, above = activation) [4]?
Answer: Its raw Tl+ flux slope (below DMSO = inhibition, above = activation) is active: 0.035.

Question: What about the thallium flux slope [5] of the same compound?
Answer: Its thallium flux slope is active: 0.0207.

Question: Which results are given for Cc1noc(C)c1CSCC(=O)OCC(=O)NC1CCCCC1?
Answer: normalized thallium flux [1]: inconclusive: 0.00545; normalized thallium flux [2]: inactive: 0.0301; thallium flux rate (normalised fluorescence) [3]: inactive: 0.00723; raw Tl+ flux slope (below DMSO = inhibition, above = activation) [4]: inactive: 0.0183; thallium flux slope [5]: inactive: 0.0114

Question: Which results are given for O=C(c1ccc(COc2ccccc2Br)o1)N1CCCCCC1?
Answer: normalized thallium flux [1]: active: 0.0033; normalized thallium flux [2]: inconclusive: 0.0274; thallium flux rate (normalised fluorescence) [3]: active: 0.00626; raw Tl+ flux slope (below DMSO = inhibition, above = activation) [4]: active: 0.0161; thallium flux slope [5]: inconclusive: 0.00936

Question: What does the source list for CC(C)CN1C=C2C(=O)C(C)(OC(=O)CCc3ccccc3)C(=O)C=C2C=C1c1ccc(C#N)cc1 (stereo unspecified)?
Answer: normalized thallium flux [1]: inactive: 0.00642; normalized thallium flux [2]: inactive: 0.0358; thallium flux rate (normalised fluorescence) [3]: inactive: 0.00763; raw Tl+ flux slope (below DMSO = inhibition, above = activation) [4]: inactive: 0.0228; thallium flux slope [5]: inconclusive: 0.0111

Question: For CCN(CC)/C(Sc1ccccc1)=C(\C(Cl)=C(Cl)Cl)[N+](=O)[O-], which normalized thallium flux [1] is on record?
Answer: The normalized thallium flux was inconclusive: 0.00367.

Question: What about the normalized thallium flux [2] of the same compound?
Answer: Its normalized thallium flux is inconclusive: 0.0276.

Question: And the raw Tl+ flux slope (below DMSO = inhibition, above = activation) [4]?
Answer: The raw Tl+ flux slope (below DMSO = inhibition, above = activation) was inconclusive: 0.0169.

Question: With CCOc1ccccc1-n1nnnc1SCc1nc2ccccc2s1 as the compound, how does the normalized thallium flux [1] read?
Answer: Its normalized thallium flux is inconclusive: 0.00278.

Question: What about the normalized thallium flux [2] of the same compound?
Answer: Its normalized thallium flux is active: 0.0244.

Question: And the thallium flux rate (normalised fluorescence) [3]?
Answer: Its thallium flux rate (normalised fluorescence) is active: 0.00579.

Question: And the raw Tl+ flux slope (below DMSO = inhibition, above = activation) [4]?
Answer: Its raw Tl+ flux slope (below DMSO = inhibition, above = activation) is active: 0.0134.

Question: And the thallium flux slope [5]?
Answer: Its thallium flux slope is inactive: 0.0091.

Question: With CC(C)C1Nc2c(C(=O)O)cccc2C(Nc2ccccc2C(=O)O)C1(C)C (stereo unspecified) as the compound, how does the normalized thallium flux [1] read?
Answer: The normalized thallium flux was inactive: 0.00489.

Question: What about the normalized thallium flux [2] of the same compound?
Answer: The normalized thallium flux was active: 0.0236.

Question: And the thallium flux rate (normalised fluorescence) [3]?
Answer: The thallium flux rate (normalised fluorescence) was active: 0.00619.

Question: What about the thallium flux slope [5] of the same compound?
Answer: The thallium flux slope was inconclusive: 0.00942.

Question: For Cc1ccc(Nc2nnc(SCc3cc(=O)n4ccsc4n3)s2)c(C)c1, which normalized thallium flux [1] is on record?
Answer: Its normalized thallium flux is inactive: 0.00678.

Question: And the normalized thallium flux [2]?
Answer: The normalized thallium flux was inconclusive: 0.0306.

Question: What about the thallium flux rate (normalised fluorescence) [3] of the same compound?
Answer: Its thallium flux rate (normalised fluorescence) is inactive: 0.00381.

Question: And the thallium flux slope [5]?
Answer: Its thallium flux slope is inactive: 0.0112.

— PubChem BioAssay
